According to the supplement of paper PMC3334620:
Over roughly 33,000 sequences, “E-score (-0.5 to 0.5)” has its median near -0.021; the highest 2% begin near 0.32. The list shows a part of the results.

Target: T1, Zap1 (UniProt P47043)
T1 sequence: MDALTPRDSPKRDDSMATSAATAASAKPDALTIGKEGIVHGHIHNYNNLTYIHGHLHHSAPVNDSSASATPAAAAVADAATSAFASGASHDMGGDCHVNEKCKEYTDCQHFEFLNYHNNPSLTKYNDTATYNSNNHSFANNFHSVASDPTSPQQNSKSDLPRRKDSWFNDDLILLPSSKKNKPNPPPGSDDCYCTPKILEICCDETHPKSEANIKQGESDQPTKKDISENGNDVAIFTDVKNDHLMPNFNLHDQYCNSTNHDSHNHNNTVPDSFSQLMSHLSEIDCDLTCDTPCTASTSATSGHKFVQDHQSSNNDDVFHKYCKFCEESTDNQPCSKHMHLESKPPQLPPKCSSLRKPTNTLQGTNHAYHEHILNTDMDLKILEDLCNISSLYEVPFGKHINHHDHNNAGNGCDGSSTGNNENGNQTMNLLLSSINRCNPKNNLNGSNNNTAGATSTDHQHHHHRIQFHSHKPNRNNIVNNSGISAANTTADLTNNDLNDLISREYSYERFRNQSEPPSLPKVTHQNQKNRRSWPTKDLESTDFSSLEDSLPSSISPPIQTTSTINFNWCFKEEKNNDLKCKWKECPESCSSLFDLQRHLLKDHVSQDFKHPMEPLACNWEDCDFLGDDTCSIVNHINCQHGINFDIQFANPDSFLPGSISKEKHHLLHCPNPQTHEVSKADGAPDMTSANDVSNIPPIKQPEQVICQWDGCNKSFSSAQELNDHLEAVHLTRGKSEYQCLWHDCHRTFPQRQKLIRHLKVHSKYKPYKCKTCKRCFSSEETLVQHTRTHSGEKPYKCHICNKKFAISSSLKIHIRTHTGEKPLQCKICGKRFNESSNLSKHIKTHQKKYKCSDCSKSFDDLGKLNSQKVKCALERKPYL
Experiment: PBM E-score (8-mer binding enrichment) (E-score (-0.5 to 0.5)); higher = stronger / more preferred TF binding; most listed sequences are background and not binding sites
Conditions: protein concentration: 200 nM; construct: GST-full length
In short: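 GST-tagged yeast TFs (full-length or DNA-binding domain) were made by PURExpress in vitro transcription/translation and applied at about 100-200 nM to universal all-10-mer Agilent arrays. The arrays were made double-stranded by primer extension, on fresh or once-stripped slides. Bound protein was detected with fluorescent anti-GST, and scans were normalised with masliner. Each ungapped eight-base word, pooled with its reverse complement, received an E-score (modified Wilcoxon-Mann-Whitney statistic) from the Universal PBM Analysis Suite.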

| Sequence | PBM E-score |
| --- | --- |
| CGCCGACA | -0.193 |
| CACGCCGC | -0.246 |
| ATTCCTAG | 0.0113 |
| ACGGCTTG | -0.0905 |
| CGGTGTGC | -0.172 |
| ACACCAAT | 0.159 |
| ACCAGGAT | 0.03 |
| CCTCCGGC | 0.0186 |
| CTATATGA | 0.0854 |
| TCCTGACA | -0.0691 |
| CCTCTACG | 0.141 |
| GCAGATCA | -0.129 |
| AAACCAAC | 0.196 |
| ATTATAGG | 0.062 |
| ATCGTATA | 0.0132 |
| AATTACAC | -0.0381 |
| CAAGTGCA | -0.145 |
| CAATAAGG | 0.0455 |
| TAATCAAA | 0.105 |
| GCAATTAC | 0.109 |
| AAACCTAT | 0.164 |
| ATGGCGGC | -0.185 |
| ACTGACCA | 0.109 |
| AGGCAACA | -0.122 |
| TCGCACAA | 0.0215 |

| Sequence | PBM E-score |
| --- | --- |
| GGGCGGTA | 0.0148 |
| AGGCGGAA | -0.15 |
| ATGTAGGC | -0.212 |
| ATACATTG | -0.0183 |
| GCGGACTA | -0.057 |
| CGAATTAG | 0.0338 |
| CACCTTCG | -0.0483 |
| GGGTATAC | 0.281 |
| TCGCTGAA | 0.14 |
| AACGTGCG | -0.101 |
| ATAAGTGG | 0.066 |
| CGCACCAC | -0.0902 |
| CTACTTCA | -0.177 |
| AAAATCCG | -0.0915 |
| ATACTATA | 0.197 |
| AAAATCGA | 0.108 |
| GCGTCTGA | -0.0107 |
| CTGAGGCA | -0.194 |
| CAACTCAA | 0.092 |
| CGATGCGC | -0.129 |
| CGTAAAAG | 0.193 |
| AACGATAT | 0.125 |
| CATTGAGC | -0.208 |
| TAGTCAAA | 0.0462 |
| TTACGGAA | 0.0455 |

| Sequence | PBM E-score |
| --- | --- |
| CGATCTTA | -0.132 |
| CGAAGAGC | -0.0671 |
| ACGGTCCT | -0.0875 |
| CTTAAGAC | -0.0538 |
| ATGCGCTA | -0.119 |
| CCGCGTAA | 0.0461 |
| ATGATGGG | -0.129 |
| ACGAGACG | -0.285 |
| AAACCCAT | 0.253 |
| GTTTGCCA | 0.00442 |
| AGTGCCGG | -0.0913 |
| AACCGTGT | 0.22 |
| ATAGCAAG | -0.0161 |
| CACTAAGC | -0.06 |
| AGCTTGAT | -0.194 |
| GCGTCAAC | -0.182 |
| GTTAGTCA | -0.0655 |
| ACTGCACC | 0.0246 |
| CACGCAAG | 0.0766 |
| CGGGGACA | -0.0979 |
| CGATCTCC | -0.244 |
| TTTAGAAA | 0.105 |
| CGGTTTAC | -0.028 |
| GCTCTATA | -0.126 |
| AGTCCTGA | -0.0542 |

| Sequence | PBM E-score |
| --- | --- |
| AATGGACT | -0.0512 |
| CTGACTGA | -0.217 |
| AAAGTGGG | 0.00103 |
| AATTATAT | 0.19 |
| CGCGCGAG | 0.107 |
| AGAACAAA | 0.257 |
| CAGCTAGC | -0.206 |
| AATGGGAT | -0.225 |
| CACGAGAG | -0.137 |
| GACCTGAA | 0.132 |
| TCAGCTAA | 0.0829 |
| CTAATCTC | -0.108 |
| CGCATGTC | -0.173 |
| GATACATA | -0.0042 |
| CGGAACCG | 0.169 |
| CCTTCCCC | -0.21 |
| CGTAACCA | 0.441 |
| ACACCAGA | 0.0396 |
| AAACGTTA | 0.00407 |
| CCAAGGGC | 0.0008 |
| GCCGACAA | -0.0426 |
| ATCTTTGA | -0.0224 |
| CTTCAGCA | -0.157 |
| AAGACTAG | -0.27 |
| GTCTTGAA | -0.0661 |

| Sequence | PBM E-score |
| --- | --- |
| AAGCCCGT | -0.309 |
| TAAAAACA | 0.127 |
| GCACAGCC | -0.115 |
| ACCCGATG | 0.159 |
| CCAAACGC | 0.0262 |
| TGGGTAAA | 0.0903 |
| AATGGGAG | -0.174 |
| CGGCGACA | -0.195 |
| ACGTTGTG | 0.0775 |
| ACGTCTCC | -0.235 |
| GAGAAATC | -0.0624 |
| GACTCCGA | -0.203 |
| AATAAACA | 0.127 |
| AGGTGGGA | -0.136 |
| GGCATATA | 0.013 |
| ACCGCTGA | 0.13 |
| ACCTCGAC | 0.218 |
| CTAGGGTA | 0.411 |
| GTTCCAAA | 0.267 |
| AGGACACC | 0.25 |
| ATTCTATC | -0.0944 |
| AATCGGTG | -0.238 |
| AATAGCAG | -0.164 |
| GATCATGC | -0.0731 |
| CGAGGAGA | -0.266 |

| Sequence | PBM E-score |
| --- | --- |
| ATCTGTGC | -0.175 |
| ACAGCGCG | 0.0244 |
| AAGGCAAG | -0.139 |
| AGGAAGTC | -0.137 |
| AAGTCAGT | -0.08 |
| AGTAGATA | 0.17 |
| CGCGCCTC | -0.128 |
| AGTAATGA | 0.0711 |
| GCCCGACC | -0.125 |
| AGTTGCCC | -0.0517 |
| AGCCCACC | 0.028 |
| GGGAAAAA | 0.00088 |
| ACATTGAT | 0.0783 |
| CAGAGGTC | 0.286 |
| CTGATTCC | -0.071 |
| GAGGGCGA | -0.283 |
| AAGCACGA | -0.12 |
| CACGCCAC | -0.234 |
| CGTCACGC | -0.019 |
| AAAACAAA | 0.271 |
| AATAGTTG | 0.176 |
| GCATTTAC | -0.156 |
| CCCGATCC | -0.148 |
| ACACCAAA | 0.302 |
| GCACGTGC | -0.193 |

| Sequence | PBM E-score |
| --- | --- |
| GCTGGAAC | -0.109 |
| CGGATTCC | -0.0353 |
| AGGTAACC | 0.441 |
| CCGTCTGC | -0.145 |
| AGCCAAAT | -0.0282 |
| AAATGTCG | -0.106 |
| TATTACAA | 0.133 |
| ATGCGGTA | 0.213 |
| ACAACGAG | 0.0286 |
| AATCTCAT | 0.0935 |
| CAGTCACA | -0.0935 |
| CTAGGGGA | 0.125 |
| ACTCACGA | -0.0773 |
| ATTTTTAG | 0.0742 |
| CTCGACAG | -0.22 |
| CACAATCC | 0.166 |
| AAGGAGCA | -0.227 |
| CTGGTGTC | 0.00053 |
| TCGTCGCA | -0.0866 |
| AACGAACT | -0.0922 |
| CGGAAAGA | -0.00377 |
| GAGCTGCC | -0.318 |
